Reference: US11365205B2 (Aurigene Discovery Technologies Limited, priority 2018, dated 2022)

Molecular target: PRMT5/MEP50 Complex (Homo sapiens (Human), UniProt O14744)
Assay: PRMT5 inhibition based on TR-FRET assay
Format: biochemical
Conditions: 32 nM PRMT5:MEP50, 50 nM Histone-H4 peptide, 1 μM SAM
Description: PRMT5 Inhibition Based on TR-FRET Assay:
Protein arginine methyltransferase 5 (PRMT5) is a type II arginine methyltransferase that catalyze mono- and symmetric demethylation on arginine residues of histone or non-histone proteins in presence of S-adenosylmethionine (AdoMet or SAM) a cofactor responsible for donating the methyl group. PRMT5 is reported to be overexpressed in several human cancers. To identify compounds that inhibit the PRMT5 and decrease its activity, a TR-FRET based assay has been established. Time-resolved fluorescence resonance energy transfer (TR-FRET) HTS assays are homogeneous proximity assays where the interaction of two dye-labeled binding partners is detected by the energy transfer between a donor and an acceptor dye and the subsequent light emission by the acceptor dye. PRMT5 catalyzes Histone H4 peptide which is biotin tagged to the Lysine amino acid at carboxyl end, in presence of S-adenosyl-1-methionine (SAM) to methylate the peptide. The antibody specific to mono methylated H4 peptide (H4R3) with Ig conjugate binds to the methylated peptide, indirectly binding to the Europium lanthanide. […]
The compound dilutions were prepared as 7.5% DMSO stock solutions in assay buffer. […] The plates were then read on Victor-3 with Excitation at 340 nm and Emissions collected at 615 and 665 nm in TR-FRET protocol. […]

Chain of UniProt O14744 (O14744 whole entry): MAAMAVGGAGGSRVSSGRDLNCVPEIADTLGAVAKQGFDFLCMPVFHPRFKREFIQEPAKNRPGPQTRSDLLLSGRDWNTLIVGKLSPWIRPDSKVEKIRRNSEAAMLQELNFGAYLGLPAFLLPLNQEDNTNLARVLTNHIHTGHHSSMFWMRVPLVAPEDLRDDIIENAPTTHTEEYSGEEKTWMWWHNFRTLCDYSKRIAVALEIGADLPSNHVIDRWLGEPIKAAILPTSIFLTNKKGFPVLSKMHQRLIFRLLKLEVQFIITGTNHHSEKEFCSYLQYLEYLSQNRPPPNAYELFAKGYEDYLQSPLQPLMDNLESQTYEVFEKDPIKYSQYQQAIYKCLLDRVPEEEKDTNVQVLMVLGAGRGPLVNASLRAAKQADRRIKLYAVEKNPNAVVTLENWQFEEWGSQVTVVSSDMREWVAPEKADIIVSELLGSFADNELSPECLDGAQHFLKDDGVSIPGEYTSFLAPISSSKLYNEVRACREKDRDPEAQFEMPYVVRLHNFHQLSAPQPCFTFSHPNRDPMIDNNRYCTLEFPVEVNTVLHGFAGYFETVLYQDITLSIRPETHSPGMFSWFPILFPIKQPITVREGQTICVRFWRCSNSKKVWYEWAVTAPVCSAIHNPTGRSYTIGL
Chain of UniProt O14744 (Q9BQA1 whole entry partner): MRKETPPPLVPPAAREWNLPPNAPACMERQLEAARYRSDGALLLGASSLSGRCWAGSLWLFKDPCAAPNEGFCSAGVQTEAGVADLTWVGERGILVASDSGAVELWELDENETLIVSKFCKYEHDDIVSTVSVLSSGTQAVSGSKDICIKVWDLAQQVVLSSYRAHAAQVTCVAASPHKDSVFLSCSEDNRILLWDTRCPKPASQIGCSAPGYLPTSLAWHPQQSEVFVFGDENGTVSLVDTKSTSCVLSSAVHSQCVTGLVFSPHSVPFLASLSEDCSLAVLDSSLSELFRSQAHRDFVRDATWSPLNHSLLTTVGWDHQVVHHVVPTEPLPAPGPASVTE

IC50 [nM]	Structure (SMILES)
180	CNC(=O)c1ccc(CN2CCN(C[C@H](O)CN3CCc4ccccc4C3)C2=O)nc1 [Example 49]
580	O=C(c1ccnc(CN2CCN(C[C@H](O)CN3CCc4ccccc4C3)C2=O)c1)N1CCCCC1 [Example 59, (R)-1-(3-(3,4-dihydroisoquinolin-2(1H)-yl)-2-hydroxypropyl)-3-((4-(piperidine-1-carbonyl)pyridin-2-yl)methyl)imidazolidin-2-one]
